# Experimental data as given in article PMC4336329 (PLoS ONE, 2015).
# Among all 310,000 compounds or so, about 2,200 (0.71%) showed an effect of 50% or more. Effects have a minus sign here. The list shows a part of the results.
# Molecular target: human ether-à-go-go-related gene (hERG) potassium channel (human, UniProt Q12809)
# Experiment: primary screen, population patch clamp on CHO cells stably expressing hERG
# human ether-à-go-go-related gene (hERG) potassium channel, sequence (Q12809 whole entry, looked up): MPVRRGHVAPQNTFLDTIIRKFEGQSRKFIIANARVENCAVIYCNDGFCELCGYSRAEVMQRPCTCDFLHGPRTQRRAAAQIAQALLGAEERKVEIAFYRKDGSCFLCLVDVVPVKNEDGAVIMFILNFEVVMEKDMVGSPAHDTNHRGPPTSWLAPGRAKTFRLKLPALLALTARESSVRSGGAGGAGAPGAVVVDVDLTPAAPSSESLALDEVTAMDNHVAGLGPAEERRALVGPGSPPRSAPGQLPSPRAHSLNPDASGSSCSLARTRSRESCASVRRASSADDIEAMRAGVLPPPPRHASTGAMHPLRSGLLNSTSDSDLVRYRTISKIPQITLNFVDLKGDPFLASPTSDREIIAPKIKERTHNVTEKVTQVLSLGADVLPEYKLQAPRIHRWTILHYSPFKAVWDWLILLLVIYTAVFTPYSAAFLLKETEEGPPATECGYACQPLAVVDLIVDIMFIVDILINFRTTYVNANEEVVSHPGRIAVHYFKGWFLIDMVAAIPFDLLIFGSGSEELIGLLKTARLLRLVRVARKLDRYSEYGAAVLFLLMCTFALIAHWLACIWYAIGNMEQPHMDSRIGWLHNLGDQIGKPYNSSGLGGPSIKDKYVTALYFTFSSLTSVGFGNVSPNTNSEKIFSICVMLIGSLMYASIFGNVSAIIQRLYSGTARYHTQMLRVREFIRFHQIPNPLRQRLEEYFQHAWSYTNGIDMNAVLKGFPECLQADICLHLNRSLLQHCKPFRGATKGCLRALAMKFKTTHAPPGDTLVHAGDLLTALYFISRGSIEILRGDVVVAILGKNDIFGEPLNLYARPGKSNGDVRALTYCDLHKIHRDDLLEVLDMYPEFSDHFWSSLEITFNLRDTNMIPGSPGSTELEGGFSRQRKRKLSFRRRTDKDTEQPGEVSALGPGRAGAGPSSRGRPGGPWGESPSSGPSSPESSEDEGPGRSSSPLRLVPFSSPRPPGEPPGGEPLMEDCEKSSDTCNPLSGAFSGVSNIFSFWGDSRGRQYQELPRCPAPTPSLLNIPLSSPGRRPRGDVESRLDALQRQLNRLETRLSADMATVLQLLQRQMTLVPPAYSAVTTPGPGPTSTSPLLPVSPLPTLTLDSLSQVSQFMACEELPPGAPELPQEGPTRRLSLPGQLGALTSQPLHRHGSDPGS
row,Compound,"hERG current change (%, negative = inhibition) at 1uM"
1,CN(C(=O)COC(=O)c1ccc(=O)n(Cc2ccccc2)n1)C1CCS(=O)(=O)C1 (stereo not drawn),-5.82%
2,COc1cc(C=O)ccc1OCCOCCOc1ccc(Cl)cc1,-2.67%
3,CC(C)n1c(NCc2nc3ccccc3n2C)nc2ccccc21,-12.9%
4,Cn1c(=O)[nH]c(=O)c2c1nc(N1CCOCC1)n2CCSc1nnnn1-c1ccccc1,-1.61%
5,Brc1ccc(/C=N/c2nc3ccccc3n2CCN2CCOCC2)cc1,9.25%
6,CCC/C(O)=C1\C(=O)CC(c2ccccc2)CC1=NCCc1c(C)[nH]c2ccc(C)cc12 (stereo not drawn),11.4%
7,COc1ccc(CCn2c(O)c(C=NCCCN(C)C)c(=O)[nH]c2=O)cc1OC,-1.74%
8,O=C(CSc1nc2ccccc2o1)Nc1ccc(Cl)cc1,-21.5%
9,COc1ccccc1C(=O)Nc1ccc(C(=O)/C=C/c2cccs2)cc1,8.74%
10,CCOc1cc(S(=O)(=O)NC2CCCCCC2)ccc1F,2.64%
11,Cc1[nH]c(=O)[nH]c(=O)c1S(=O)(=O)N(C)Cc1ccccc1,0.238%
12,Cc1cccc(N2CCN(C(=O)COc3cc4oc(=O)cc(C)c4cc3Cl)CC2)c1C,7.06%
13,CCOC(=O)CN1CC23C=CC(O2)C(C(=O)Nc2ccc(F)c(C)c2)C3C1=O (stereo not drawn),16.3%
14,COc1ccc(NC(=O)C(=O)NCc2ccncc2)c(OC)c1,9.16%
15,C/C(=N\NC(=O)c1ccc(N2CCCC2=O)cc1)c1ccncc1,10.2%
16,COC(=O)c1ccc(OC(=O)C23CCC(C)(C(=O)O2)C3(C)C)cc1 (stereo not drawn),8.97%
17,Cc1ccc(-n2c(C)cc(/C=N/NC(=O)c3ccncc3)c2C)c(C)c1,-4.93%
18,Cc1cc(C(=O)OCC(=O)c2ccc3c(c2)OCCO3)c(C)o1,9.27%
19,COc1ccc(NC(=O)c2ccccc2Oc2ccccc2)c(OC)c1,11.9%
20,CC(=O)Nc1ccc(SCC(=O)Nc2ccccc2-c2ccccc2)cc1,12.6%
21,N#Cc1ccsc1NC(=O)C1=COCCO1,7.49%
22,COc1ccc(NC(=O)c2sc3nc(C)cc(C)c3c2N)cc1,19.1%
23,CC(C)(C)NC(=O)NC(=O)COC(=O)C1(C)CC1(Cl)Cl (stereo not drawn),7%

row,Compound,"hERG current change (%, negative = inhibition) at 1uM"
1,Cc1ccc(C)c(C(=O)CCC(=O)O)c1,-3.19%
2,CC(=O)c1ccc(N2CCCC2)c(F)c1,5.72%
3,CC(C)C[C@H](NC(=O)c1cc2cc(Cl)ccc2n1C)C(=O)N1CCC(C(=O)O)CC1,10.9%
4,Cc1cccn2c(Nc3ccccc3)c(-c3ccccn3)nc12,5.27%
5,O=C(C(c1ccccc1)c1ccccc1)N1CCN(Cc2ccccn2)CC1,1.07%
6,CCCCC1=CC2=CC(=O)C(C)(OC(=O)CC)C(=O)C2=CN1CCOC (stereo not drawn),8.62%
7,COc1cc(/C=N/NC(=O)C(N)=O)cc(OC)c1O,2.87%
8,S=c1[nH]nc(-c2cccs2)n1C1CCCCC1,9.76%
9,COC(=O)c1cc2ccsc2n1Cc1cc(=O)n2ccccc2n1,9.97%
10,COc1cccc(C(=O)NC2CCN(C(=O)N3CCCCC3)CC2)c1,13.4%
11,N/C(=N/OC(=O)c1ccccc1F)c1nonc1N,17.2%
12,COc1cc(C(C#N)N2N=C(c3ccccc3)CC2c2ccccc2)ccc1O (stereo not drawn),-3.66%
13,CCCn1c(SCC(=O)N2CCCCC2)nc2c1c(=O)n(C)c(=O)n2C,14.1%
14,COc1ccc(-c2oc3ccc(N4CCOCC4)cc3c2C#Cc2ccc(N)cc2)cc1,14.2%
15,Br.O=c1cc2c(n[nH]1)CCCC2,4.64%
16,CCOc1ccc(NC(=O)C(C)Oc2ccccc2C(=O)Nc2cccc(Cl)c2Cl)cc1 (stereo not drawn),14.3%
17,Cc1ccc2cc(CNC(C)C)c(=O)[nH]c2c1,-2.11%
18,CCCC(=O)Nc1ccc(NC(=S)NC(=O)c2ccccc2[N+](=O)[O-])cc1,9.36%
19,COc1cc(C2C(C#N)=C(N)Oc3n[nH]c(-c4cccnc4)c32)cc(Br)c1O (stereo not drawn),16.2%
20,Cn1c(NC(=O)c2ccc3c(c2)OCO3)cc(=O)n(C)c1=O,17.2%
21,CCN(C(=O)[C@@H]1CCCN1C(=O)c1cccs1)c1nc2cc(Cl)ccc2s1,-3.28%
22,CC(=O)Oc1ccc(C(=O)Nc2ccc(C3(C#N)CCCC3)cc2)cc1,19.6%
